# Results as given in the supplement of paper PMC4967469.
# A lower IC50 marks a more sensitive line; a fit beyond the top or the lowest dose is shown as a bound at that dose. For AUC the same curve is integrated over the 256-fold range of doses and scaled to a fraction; the more sensitive the line, the further below 1. For part of these data: Where the top dose is marked as inferred, it was calculated from the reported fits. For part of these data: An entry number marks a drug with two screens in the source, which often give different values.
# Legend:
# Experiment in all cases: Viability of human cancer cell lines after 72 h of drug (GDSC screen)
# [1] = compound: COC(=O)[C@H](CCSC)NC(=O)c1ccc(NC[C@@H](N)CS)cc1-c1ccccc1 [FTI-277]; details: top dose 1.024 µM; top dose inferred
# Procedure: (§1)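 Human cancer cell lines in 384-well plates, medium with 10% serum, drug for 72 h over a 256-fold dose range (nine 2-fold or five 4-fold steps up to the top dose). Adherent lines were fixed and stained with the nucleic acid dye Syto60, suspension lines read with resazurin; signal relative to control wells, capped at 0 and 100%. One two-parameter sigmoid per drug and line, fitted in a mixed model over all curves with the slope shared within a line.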
# [2] = compound: C[C@]1(O)C[C@@H](c2nc(-c3ccc4ccc(-c5ccccc5)nc4c3)c3c(N)nccn32)C1 [OSI-906]; details: top dose 2.56 µM; top dose inferred
# Procedure: as §1
# [3] = compound: CC1(C)CNc2cc(NC(=O)c3cccnc3NCc3ccncc3)ccc21 [AMG-706]; details: top dose 2 µM; top dose inferred
# Procedure: as §1
# [4] = compound: c1ccc2c(CCNc3ccc(Nc4ccncc4)cc3)c[nH]c2c1 [JNJ-26854165]; details: top dose 10 µM
# Procedure: as §1
# [5] = compound: Cc1sc2c(c1C)C(c1ccc(Cl)cc1)=N[C@@H](CC(=O)OC(C)(C)C)c1nnc(C)n1-2 [JQ1]
# Procedure: as §1
# [6] = compound: CCOc1nc(NC(=O)Cc2cc(OC)ccc2OC)cc(N)c1C#N [JNK Inhibitor VIII]; details: top dose 10 µM; top dose inferred
# Procedure: as §1
# [7] = compound: COCC[n+]1c2c(n(Cc3cnccn3)c1C)C(=O)c1ccccc1C2=O [YM155]; details: top dose 5.12 µM
# Procedure: as §1
# [8] = compound: O=C(/C=C/c1cccc(S(=O)(=O)Nc2ccccc2)c1)NO [Belinostat]; details: top dose 20 µM; top dose inferred
# Procedure: as §1
# [9] = compound: Cc1ccc(C(=O)N(CCCN)[C@@H](c2nc3cc(Cl)ccc3c(=O)n2Cc2ccccc2)C(C)C)cc1 [SB-715992]; details: top dose 0.128 µM; top dose inferred
# Procedure: as §1
# [10] = compound: CN1CCN(c2ccc([N+](=O)[O-])c3no[n+]([O-])c23)CC1 [NSC-207895]; details: top dose 20 µM; top dose inferred
# Procedure: as §1
# [11] = compound: CC(=O)O[C@@]12CO[C@@H]1C[C@H](O)[C@@]1(C)C(=O)[C@H](O)C3=C(C)[C@@H](OC(=O)[C@H](O)[C@@H](NC(=O)OC(C)(C)C)c4ccccc4)C[C@@](O)([C@@H](OC(=O)c4ccccc4)[C@H]21)C3(C)C [Docetaxel]; details: top dose 0.0125 µM
# Procedure: as §1
# [12] = top dose 1 µM, screen: GDSC drug entry 1218, top dose inferred
# [13] = top dose 2.56 µM, screen: GDSC drug entry 163
Cell Line,AUC [1],IC50 [1] [nM],AUC [2],IC50 [2] [nM],AUC [3],IC50 [3] [nM],AUC [4],IC50 [4] [nM],"AUC [5, 12]","IC50 [5, 12] [nM]","AUC [5, 13]","IC50 [5, 13] [nM]",AUC [6],IC50 [6] [nM],AUC [7],IC50 [7] [nM],AUC [8],IC50 [8] [nM],AUC [9],IC50 [9] [nM],AUC [10],IC50 [10] [nM],AUC [11],IC50 [11] [nM]
"COLO-205 (large intestine, suspension)",0.977,> 1020,0.412,92,0.987,> 2000,0.966,> 10000,0.82,562,0.46,125,0.987,> 10000,0.078,< 20,0.462,988,0.692,27.4,0.98,> 20000,0.932,> 12.5
"COLO-678 (large intestine, semi-adherent)",0.963,> 1020,0.974,> 2560,0.985,> 2000,0.934,> 10000,0.982,> 1000,0.834,2410,0.984,> 10000,0.307,77.9,0.709,5850,0.983,> 128,0.984,> 20000,0.916,> 12.5
"COLO-679 (melanoma, adherent)",0.91,> 1020,0.864,> 2560,0.984,> 2000,0.842,8330,0.977,> 1000,0.353,59.4,0.984,> 10000,0.165,25.8,0.766,8270,0.919,> 128,0.98,> 20000,0.722,3.64
"COLO-680N (oesophagus, adherent)",0.93,> 1020,0.906,> 2560,0.982,> 2000,0.958,> 10000,0.985,> 1000,0.753,999,0.982,> 10000,0.986,> 5120,0.986,> 20000,0.915,> 128,0.981,> 20000,0.838,10.8
"CP50-MEL-B (melanoma, adherent)",0.988,> 1020,0.981,> 2560,0.971,> 2000,0.859,8170,0.984,> 1000,0.818,1420,0.974,> 10000,0.034,< 20,0.471,1040,0.958,> 128,0.867,17600,0.77,4.7
"CS1 (bone, adherent)",0.974,> 1020,0.909,> 2560,0.955,> 2000,0.759,3880,0.97,> 1000,0.818,1670,0.959,> 10000,0.047,< 20,0.514,1370,0.709,33.6,0.87,> 20000,0.692,2.9
"Ca9-22 (head and neck, adherent)",0.918,> 1020,0.965,> 2560,0.977,> 2000,0.917,> 10000,0.986,> 1000,0.453,121,0.972,> 10000,0.055,< 20,0.258,271,0.619,16.5,0.944,> 20000,0.418,0.474
"Ca-Ski (cervix, adherent)",0.968,> 1020,0.946,> 2560,0.976,> 2000,0.826,7060,0.686,222,0.513,175,0.962,> 10000,0.032,< 20,0.333,404,0.572,12.9,0.845,17200,0.464,0.617
"CaR-1 (large intestine, adherent)",0.959,> 1020,0.971,> 2560,0.97,> 2000,0.928,> 10000,0.975,> 1000,0.854,> 2560,0.977,> 10000,0.048,< 20,0.527,1530,0.904,> 128,0.96,> 20000,0.701,3.85
"Capan-2 (pancreas, adherent)",0.911,> 1020,0.852,> 2560,0.981,> 2000,0.925,> 10000,0.922,> 1000,0.943,> 2560,0.975,> 10000,0.248,50.6,0.944,> 20000,0.976,> 128,0.818,14500,0.927,> 12.5
"DAN-G (pancreas, adherent)",0.989,> 1020,0.93,> 2560,0.992,> 2000,0.942,> 10000,0.991,> 1000,0.949,> 2560,0.976,> 10000,0.02,< 20,0.496,1220,0.96,> 128,0.99,> 20000,0.89,11.3
